Assay results reported in the supplement of paper PMC3334620.
Over roughly 33,000 sequences, “E-score (-0.5 to 0.5)” has its median near -0.016; the highest 2% begin near 0.31. This is one part of the list.

What follows are sequences tested against Cst6 (UniProt P40535) (assay: PBM E-score (8-mer binding enrichment) (E-score (-0.5 to 0.5)); higher = stronger / more preferred TF binding; most listed sequences are background and not binding sites). Details: protein concentration: 200 nM; construct: GST-DNA-binding domain.
Method: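 Universal 'all 10-mer' protein binding microarrays (Agilent AMADID 015681) probed with GST-tagged S. cerevisiae TFs (full-length or DBD) made by in vitro transcription/translation (PURExpress), about 100-200 nM. Bound TF was detected with fluorescent anti-GST. Each ungapped 8-mer (which stands for itself and its reverse complement) is scored by the PBM enrichment score (E-score), a modified Wilcoxon-Mann-Whitney statistic from -0.5 to +0.5, computed with the Universal PBM Analysis Suite. Scale: above 0.35 generally sequence-specific binding.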

| Sequence | PBM E-score |
| --- | --- |
| CTCACAAG | -0.00284 |
| GAGATCAA | 0.16 |
| AAGCTGAT | 0.149 |
| CCTATAGA | -0.102 |
| CCCCGAAG | -0.0458 |
| ATGTTTCA | 0.0829 |
| GAAGGGAC | -0.37 |
| AAGACCAT | -0.0598 |
| CCGGGACC | -0.235 |
| GGATCAAA | 0.112 |
| AAAGACGA | 0.163 |
| GGATCGCC | -0.0588 |
| GACAGGTA | -0.0506 |
| AGGGAGAG | -0.306 |
| CACAGCAC | -0.027 |
| ACAAGTAC | -0.0561 |
| GGCTACAC | -0.0907 |
| AATTTTCG | 0.0598 |
| AGGACAAG | -0.193 |
| CCTTGGTA | 0.0148 |
| AGGTAGGC | -0.276 |
| AGCACTAA | -0.0481 |
| CACGTCGA | -0.0449 |
| CATTGAGG | -0.0774 |
| CGGGATTC | -0.0734 |

| Sequence | PBM E-score |
| --- | --- |
| AACGCTAA | -0.102 |
| CTTTGGTC | 0.0204 |
| AGTTCTCC | -0.256 |
| CTAAATCC | -0.0264 |
| GCTTGTAA | 0.0486 |
| ATCCATGG | -0.138 |
| CGCGATAA | 0.0799 |
| CAGATGGA | 0.0301 |
| ACTACACA | 0.17 |
| AACAGGTC | -0.136 |
| ATGAAAAC | 0.262 |
| TGACAGAA | 0.27 |
| CCGATAAA | 0.0173 |
| CACAGACA | 0.0402 |
| CTCCTAAG | -0.125 |
| GGGTGATA | -0.0342 |
| AGGGGCCG | -0.237 |
| ATGCATTG | 0.0704 |
| AAACTGGG | -0.199 |
| CTATGCCC | -0.0845 |
| ATTACGCA | 0.398 |
| CGAGGTCC | -0.296 |
| AAACCTCT | -0.0254 |
| ATTCCATG | -0.00135 |
| GACCATCC | -0.121 |

| Sequence | PBM E-score |
| --- | --- |
| GATATACA | 0.0998 |
| AGAGTCCG | -0.307 |
| ACCTTGTC | -0.171 |
| AGAGTTCC | -0.258 |
| ACTCCGTG | 0.0481 |
| CCGCCATA | -0.00276 |
| CATCTCCG | -0.00869 |
| CCCACTCC | -0.334 |
| AAGCCACA | -0.0171 |
| ATTCTTCC | -0.0364 |
| GCACACCA | -0.0603 |
| TCGCGTCA | 0.369 |
| GTCCATTA | 0.0942 |
| CCCGGAGC | -0.113 |
| ATGTCTGC | -0.0808 |
| AACGACCC | -0.19 |
| GCACTATA | -0.0309 |
| AAGCAATC | -0.00786 |
| AAAGTAGC | -0.0556 |
| ACTCTGTA | 0.00029 |
| ATTACATG | 0.245 |
| ATGACGGG | 0.258 |
| CATGGAAG | 0.0889 |
| AACCCCCT | -0.32 |
| CGTTATCA | 0.238 |

| Sequence | PBM E-score |
| --- | --- |
| CTTATGAA | 0.052 |
| TACAGTAA | 0.137 |
| GTTCGAAA | 0.193 |
| AAGTTTTA | 0.181 |
| ATAGGTTC | -0.0321 |
| CTCGTTTC | 0.0108 |
| CGAGGCAC | -0.0663 |
| CCGTAATA | 0.176 |
| CGAGAGAA | -0.0828 |
| GGAATTAC | 0.215 |
| CGCTCTCA | -0.0978 |
| AATAGGAT | 0.234 |
| TACGTTGA | 0.254 |
| AGAATCCT | -0.295 |
| TAGTGTCA | 0.17 |
| AGCTTCAA | -0.0524 |
| TCCCGGAA | -0.216 |
| AAGACAGC | -0.0854 |
| ATTTTAAC | 0.0103 |
| ATTCACCC | -0.0581 |
| GAAATCGA | -0.0554 |
| CCCTTCGA | -0.255 |
| GAGGTTGC | -0.23 |
| AGAACTCC | -0.142 |
| GTGGGGTA | 0.0304 |

| Sequence | PBM E-score |
| --- | --- |
| ACTCGTTG | -0.0133 |
| TGTTCGAA | 0.0264 |
| AACATGAA | 0.0629 |
| AGTATATG | 0.111 |
| CATTGACA | 0.0835 |
| CCCTCGTA | -0.18 |
| CGCCCGGC | -0.202 |
| AGGGCGTG | -0.115 |
| GGAACCGA | -0.0692 |
| CCCCCTAC | -0.415 |
| CCAATGAA | -0.187 |
| CGTGTATC | -0.024 |
| ACCACTGA | 0.0276 |
| ATATAGTC | 0.196 |
| ATGAAATC | 0.314 |
| GGAGTACC | -0.32 |
| ACACCCGA | -0.0457 |
| GCTGAACC | -0.176 |
| AAGATTCC | 0.141 |
| GCAAACGA | 0.105 |
| ACGCGAGA | -0.111 |
| CTATCTTC | 0.0856 |
| GAGCAAAC | 0.0617 |
| GAAGCGGA | -0.109 |
| AGGACTAT | -0.176 |

| Sequence | PBM E-score |
| --- | --- |
| CCCGGCGA | -0.155 |
| CCCCTAAC | -0.203 |
| CATCACAG | 0.253 |
| ATGACCAT | 0.124 |
| CACGAAGG | -0.0913 |
| CTGCATGA | -0.0401 |
| AACGACGT | 0.183 |
| CCAACGCG | -0.168 |
| AACGCCAT | 0.118 |
| ACCAACCA | -0.0567 |
| CAGGGACC | -0.315 |
| CGTCGTTC | 0.0836 |
| CATGCGAG | -0.0822 |
| GCTGAGCC | 0.0143 |
| AAGAAAGG | 0.0942 |
| AGCTTCAG | -0.182 |
| AGAAAATG | 0.0622 |
| ACAGGGAT | -0.186 |
| ATCGAAGC | -0.0506 |
| CACACCGA | 0.0377 |
| GGTTGACA | 0.109 |
| ACATAACT | 0.17 |
| CAGGTAAA | 0.193 |
| ACCGTATG | 0.123 |
| ACCAAGAT | 0.071 |

| Sequence | PBM E-score |
| --- | --- |
| AGTGAAGG | -0.115 |
| CCACCAAA | 0.0187 |
| CGTTTACA | 0.0632 |
| CCATCTAG | -0.261 |
| GCTGCTAC | -0.261 |
| GATACTGA | 0.101 |
| CCCATTAC | -0.0421 |
| GGGCCGAC | -0.198 |
| ACTCGGCG | 0.00811 |
| CTTGCTAA | -0.132 |
| CCGGGGCA | -0.192 |
| CCATTCAC | -0.106 |
| AAAACCCT | -0.0741 |
| AGCCCCAT | -0.241 |
| CCATGGGA | -0.232 |
| CATGAGAA | 0.194 |
| CCTGGGTA | -0.301 |
| CTTCCGTC | 0.0409 |
| AGAGCGGC | 0.128 |
| ATATGATC | 0.234 |
| ATTGCCAA | -0.137 |
| GTGAAGCA | -0.0612 |
